# In all, about 52,000 compounds went through this assay and about 1,700 (3.3%) were called active. Rule as the data show it: active = survival mostly below about 52% (no sharp cut-off); inactive = mostly above about 56%. The list shows a part of the results.
# Test system: Wild type
# Assay: S. aureus survival, RN4220 and DeltatarO strains – OD600, teichoic acid synthesis inhibitors, primary screen (AID 463173)
# Details: S. aureus RN4220 wild type/DeltatarO growth, OD600, 18 h, hits give low values, screened at 18.75 µg/mL (by protocol)
row,Compound,survival
1,Cc1cc2nc3n(c2cc1C)CCCN3,inactive: 106%
2,Cc1ccn(C(=O)COc2ccc(Cl)cc2)n1,inactive: 107%
3,CCCCn1c(=NC(=O)c2cc3ccccc3o2)c(C(=O)OCC)cc2c(=O)n3ccccc3nc21,inactive: 120%
4,O=C(Cn1c(=O)oc2cc(S(=O)(=O)N3CCCCC3)ccc21)NCc1ccc(Cl)cc1,inactive: 82%
5,COc1ccc(N2CCN(Cc3nnnn3CCc3ccccc3)CC2)cc1,inactive: 105%
6,O=C(Oc1ccc(Cl)cc1)c1cc(-c2ccc3c(c2)OCCO3)on1,inactive: 108%
7,COc1ccc(Cn2ccnc2SCC(=O)NCc2ccco2)cc1,inactive: 70%
8,COc1ccc(-c2onc(C)c2C)cc1S(=O)(=O)NCC1CCN(Cc2cc(C)ccc2C)CC1,inactive: 73%
9,Cc1cccc(N2CCN(S(=O)(=O)c3ccc4c(c3)CC(=O)N4C)CC2)c1C,inactive: 152%
10,CCN(CC)CCNC(=O)Cn1nc(C)c2c(C)n(-c3ccccc3)nc2c1=O,inactive: 79%
11,COC(=O)c1ccccc1NC(=O)c1ccc2nc(CCc3ccccc3)oc2c1,inactive: 129%
12,CCn1c(=O)c2cc(C(=O)NCCCN3CCC(C)CC3)sc2c2ccccc21,inactive: 82%
13,CC(C)Oc1ccc(CCN=C(N)N=C(N)N)cc1Cl,inactive: 105%
14,COc1cccc(-c2noc(COc3ccccc3Cl)n2)c1,inactive: 82%
15,Cc1ccc(Cl)cc1NC(=O)CSc1nc2ccccc2nc1Cc1ccccc1,inactive: 69%
16,CCOc1ccc(N2C(=O)N(Cc3ccc(C)cc3C)c3ccccc3S2(=O)=O)cc1,inactive: 78%
17,COc1ccccc1N1CCN(CC(O)COc2cc(C)cc(C)c2)CC1 (configuration not stated),inactive: 82%
18,Cc1ccc(SCCNS(C)(=O)=O)cc1,inactive: 115%
19,O=c1c2ccccc2n(Cc2cccc(F)c2)c(=O)n1Cc1ccccc1Cl,inactive: 41%

row,Compound,survival
1,COc1cccc(CNC(=O)CCCN2C(=O)CSc3c2c(C)nn3-c2ccccc2)c1,inactive: 89%
2,Cc1ccc(-c2cc(C(=O)NCCc3ccccc3)c3c(-c4ccc(C)cc4)[nH]nc3n2)cc1,inactive: 88%
3,COc1ccc(-c2ccc3c(N)c(C(=O)Nc4cc(F)ccc4C)sc3n2)cc1,inactive: 135%
4,CCn1cc(C(=O)N2CCN(c3cc(C)ccc3C)CC2)c(=O)c2cc(S(=O)(=O)N(C)C3CCCCC3)ccc21,inactive: 73%
5,Cc1cccc(Nc2c3c(nc4nncn24)CCC3)c1,inactive: 82%
6,Cc1ccc(NC(=O)CSc2nc3c([nH]c4ccccc43)c(=O)n2-c2ccccc2)c(C)c1,inactive: 80%
7,CCCCN1CCc2nc(N3CCN(c4ncccn4)CC3)ncc2C1,inactive: 87%
8,O=C(NCCc1nc2ccccc2[nH]1)c1ccc(F)cc1,inactive: 116%
9,CCN(c1ccccc1)S(=O)(=O)c1ccc(NC(=O)c2cc(=O)c3cc(C)c(C)cc3o2)cc1,inactive: 84%
10,Cc1cccc(NS(=O)(=O)c2ccc3c(c2)CCN3C(=O)CCC(=O)O)c1C,inactive: 74%
11,COc1ccc(S(=O)(=O)Nc2cc3c(cc2NCc2ccccc2)n(C)c(=O)n3C)cc1OC,inactive: 94%
12,COc1cccc(-n2cc(C(=O)NCc3cccc(Cl)c3)c3ccccc3c2=O)c1,inactive: 80%
13,Cn1cc(-c2nnc(-c3ccccc3)o2)c2ccccc21,inactive: 109%
14,Cc1cc(C)n(C(C)n2nc(C)cc2C)n1,inactive: 108%
15,COc1ccccc1N1CCN(C(=O)Cn2c(=O)nc(-c3ccccc3)c3cc(Cl)ccc32)CC1,inactive: 73%
16,CCOc1ccc(NC(=O)c2ccc(-c3ccccc3)s2)cc1,inactive: 84%
17,Cc1nc2c(-c3ccc(F)cc3)c(C)nn2c(C)c1CCC(=O)NCc1ccc(Cl)cc1,inactive: 91%
18,CCOc1ccc(C(=O)Nc2ccc3nc(SCc4ccccc4)sc3c2)cc1,inactive: 96%
19,Cc1cc(C)c(NC(=O)c2cc3c(=O)n4ccccc4nc3n2C)c(C)c1,inactive: 81%

row,Compound,survival
1,Cc1cc(-c2nc3ncccc3o2)ccc1NC(=O)c1ccc(Br)cc1,inactive: 146%
2,Cc1ccc2c(=O)cc(CSc3nnc(-c4ccccc4)n3C)[nH]c2c1C,inactive: 58%
3,CC(C)c1ccc(S(=O)(=O)Nc2ccc3oc4c(c3c2)C(=O)CC(C)(C)C4)cc1,inactive: 138%
4,CCOC(=O)Cn1c(=O)n(C2CCCCC2)c2nc(-c3ccc(Cl)cc3)nc(C(N)=O)c21,inactive: 112%
5,CC(=O)Nc1ccc(S(=O)(=O)N2CCC(Oc3ccc(-n4cnnn4)cc3)CC2)cc1,inactive: 118%
6,CC1CCN(C(=O)c2cnn(-c3cccc(Cl)c3)c2C2CCN(C(=O)OC(C)(C)C)CC2)CC1,inactive: 68%
7,CC(=O)N1CCc2c(sc3c2c(=O)n(-c2ccccc2C)c(=O)n3Cc2cccc(F)c2)C1,inactive: 80%
8,COc1cc(OC)cc(-n2nnc(-c3nc(-c4ccccc4Cl)no3)c2N)c1,inactive: 99%
9,COCCCNC(=O)c1sc2nc(C)c(C(=O)Nc3ccc(C)cc3C)c(-c3ccc(Cl)cc3)c2c1N,inactive: 125%
10,Cc1c(Cl)cccc1NC(=O)c1ccc(C(=O)Nc2cccc(Cl)c2C)cc1,inactive: 79%
11,COc1ccc(OCC(=O)NCC(c2ccc(Cl)cc2)N2CCCCC2)cc1 (configuration not stated),inactive: 80%
12,Cc1cccc2c(=O)c(C(=O)NCc3cccs3)c[nH]c12,inactive: 104%
13,CSc1ccc(CNC(=O)c2ccccc2NC(=O)c2nsc3ccccc23)cc1,inactive: 90%
14,CC(=O)N1c2ccccc2C(=O)C1N1CCN(c2ccccc2)CC1 (configuration not stated),inactive: 80%
15,COc1ccc(NC(=O)c2c(-c3ccccc3)c(-c3ccccc3)nn(C)c2=O)c(OC)c1,inactive: 78%
16,Cc1c(CNC(C)CCc2ccccc2)c(C(=O)O)c(C)n1Cc1ccc(F)cc1Cl (configuration not stated),inactive: 93%
17,O=C(Nc1ccccc1-c1nc2ccccc2s1)c1cc(Cl)cc(Cl)c1,inactive: 72%
18,COc1ccc(CN2COc3ccc4c(oc(=O)c5ccccc54)c3C2)cc1OC,inactive: 91%
19,Cc1ccccc1Nc1c(-c2ccc(N3CCOCC3)cc2)nc2ncccn12,inactive: 82%
